Results from patent US20230124862A1, “BISMUTH THIOL COMPOUNDS AND COMPOSITIONS AND METHODS OF TREATING MICROBIAL CO-INFECTIONS” (Microbion Corporation, priority 2020, published 2023).
Where two headings read alike, the source gives them in different places.

Assays:
[1] = system: Mycobacterium abscessus complex (MABSC) biofilms; test: Activity against CF-isolate biofilms; details: AMT0130-8
Source text: AMT0130-8 represents a CF-isolate of the clinically relevant MABSC, which frequently complicates the treatment of CF pulmonary infections. […] .
AMT0089-5 is a macrolide-resistant, amikacin-resistant MABSC. The involvement of such antibiotic-resistant strains of MABSC in the pulmonary infections of CF patients is extremely problematic. […] .
ATCC-19977 is M. abscessus (macrolide-resistant; inducible).

[2] = system: Pseudomonas aeruginosa biofilms

CC(S)C(C)S.[Bi] (stereo not drawn) [BisBDT, bismuth-2,3-butanedithiol]
Reductions in biofilm cell viability [1]: only very modest reductions | Reductions in biofilm cell viability [2]: 2 logs | Reductions in biofilm cell viability ([2]; MR14 (MDR CF isolate), 25 ng/mL): 2 logs
